# Measurements from ChEMBL document CHEMBL4888484, “Replenishing the malaria drug discovery pipeline: Screening and hit evaluation of the MMV Hit Generation Library 1 (HGL1) against asexual blood stage Plasmodium falciparum ,using a nano luciferase reporter read-out” (2022).
# Among all 150,000 compounds or so, about 540 (0.36%) showed an effect of 50% or more. The list shows a part of the results.
# Test system: Plasmodium falciparum
# Test: Primary screen in NF54 nanoGlo assay, in single point, at 2uM, 72h; a lower Z score goes with more inhibition
# Assay type: functional, Erythrocyte
# Details: timepoint 72 hour
Compound,% Inhibition [%],Z score
O=S(=O)(NC[C@H]1CC2c3ccccc3C1c1ccccc12)c1cccs1,-1,0.12
O=C(NCc1c[nH]nc1-c1ccc(F)cc1)N1CC[C@H](N2CCCCC2)C1,-4,0.77
Cc1nccc(O)c1OCC(=O)Nc1cccc(C(F)(F)F)c1,-10,1.84
Cc1cc(Br)cnc1N1CCN([C@H]2CCS(=O)(=O)C2)CC1,-13,2.5
CCn1c(C2CCNCC2)nn(CC(=O)N[C@@H](C)c2ccc(C)cc2)c1=O,-2,0.37
Cc1cc(=O)c(C(=O)Nc2c(F)cccc2NC(C)C)c[nH]1,-2,0.29
O=C(Cc1cccc(Cl)c1)N[C@H]1CCN(Cc2cscn2)C[C@@H]1O,-7,0.88
Cc1ccc(C)c(OCCn2ncc3[nH]cnc3c2=O)c1,-8,1.28
CCN1CCN(C(=O)CN2C(=O)COc3ccc(C(=O)COc4ccc(Cl)cc4F)cc32)CC1,2,-0.21
Cc1ccc2sc(N(Cc3cccnc3)C(=O)C3=COCCO3)nc2c1C,-13,2.44
O=C(Nc1cc(-n2cncn2)ncn1)c1cncc(Br)c1,-14,2.38
CC[C@H](C)n1nc(NC(=O)C(=O)Nc2c(OC)ncnc2N(C)C)cc1C,-1,0.08
Cc1nc2cc(NS(=O)(=O)CCOc3ccccc3)ccc2s1,-11,2.15
CCc1ccccc1OCCN1CCOC[C@](O)(CN2CCCC2)C1,-4,0.75
CCc1nc(CN2C(=O)OC(C)(C)C2=O)cs1,-14,1.72
CN(C)C1CCN(Cc2cc(Br)cc3c2OCC3)CC1,-6,0.72
COc1ccc(-c2cc(-c3cccnc3)nc(N)c2C#N)c(OC)c1C,2,-0.24
CN(C)c1ccc(C(=O)N2CC(S(=O)(=O)N3CCOCC3)C2)cn1,5,-0.61
CN(C)CC(=O)NC1(Cc2ccccc2)CC1,-11,1.53
CCS(=O)(=O)c1ccc(N2CCC(Cc3nccn3C)CC2)cc1,-4,0.36
COc1ccc(C(=O)Nc2cnn(CCN3CCCCC3)c2)nc1,-6,1.1
O=C(COC(=O)c1ccc(S(=O)(=O)N2CCCCC2)cc1)Nc1cccc(C(F)(F)F)c1,-1,0.2

Compound,% Inhibition [%],Z score
COc1ccc(C2C(C(=O)O)c3ccccc3C(=O)N2C2CCCC2)cc1 (stereo not given),4,-0.69
CC(C)(C)OC(=O)N1C2CCC1CC(NC(=O)CCc1ccco1)C2 (stereo not given),-5,0.9
NC(=O)C1CCN(C(=O)CN2CCCC2CC2CC3CCC2C3)CC1 (stereo not given),-9,0.97
CCCS(=O)(=O)N1CCN(c2nc(C3CC3)nc(COC)c2Cc2cccc(C)c2)CC1,-4,0.49
O=C1CCN(C(=O)c2cccc(-c3ccccc3F)c2)CCN1Cc1ccccn1,3,-0.29
Cc1nn(C)c(C)c1CCN(C)c1nc(C2CC2)nc2c1CCC2,-19,2.07
Cn1c(CO)nnc1C1CCN(C(=O)c2ccc(-c3cnccn3)cc2)CC1,12,-1.52
COC(=O)C(C)(C)[C@H]1CCCN(C(=O)CCc2ccncc2)C1,-1,0.18
Cc1nc(CN2c3ccccc3OC[C@@H]2C)oc1C,-9,1.27
Cc1ccc2c(c1)S(=O)(=O)NCCOCCOCCNS(=O)(=O)c1cc(C)ccc1OCCOCCO2,-9,1.27
Cc1nnc(N2CCC(C(=O)NCCN3CCCC3)CC2)c2nn(-c3ccc(Cl)cc3)c(C)c12,15,-1.73
CC(C)(C)OC(=O)N1C2CCCC1CN(C(=O)Nc1cccc3[nH]ccc13)C2,1,-0.28
CCC(=O)N1CCC2(CC1)C[C@@H](N(Cc1ccccc1)C1CC1)CCO2,6,-1.06
COc1ccc([C@@H]2NCCC23C(=O)N(Cc2ccccc2)c2ccccc23)cc1 (stereo not given in full),2,-0.36
O=C(Cn1cccc1-c1nc(-c2ccccc2)cs1)N1CCC(N2CCCCC2)CC1,0,-0.04
CC(C)CCc1n[nH]c(CCCc2cn[nH]c2)n1,-1,0.21
NS(=O)(=O)[C@H]1CCN(C(=O)C2CCC(F)(F)CC2)C1,-10,1.31
O=C(NC1CCC(O)CC1)N1CCC[C@H]1c1nc2ccccc2s1 (stereo not given in full),-1,0.24
CNC(=O)c1ccc(OC(=O)c2c(C(C)C)nn(C)c2Cl)cc1,-6,0.81
Cn1c(C(F)(F)F)nn(C2CCN(Cc3cccnc3)CC2)c1=O,-5,0.58
Cc1ccc(-n2nnnc2C2(NC(C)C)CCCC2)cc1,-3,0.43
Cc1cccnc1C(NC(=O)NC1CCCN(S(C)(=O)=O)C1)C(C)C (stereo not given),-14,1.39

Compound,% Inhibition [%],Z score
Cc1cc(=O)[nH]c(N2CCC(NC(=O)NCc3ccco3)CC2)n1,-6,1.07
Cc1ccc(CN2CCC3(CC2)C[C@@H](C(=O)NCc2ccccn2)N(C)C3)s1,35,-0.88
Cc1nc(CN2CCN(c3cccc(Cl)c3)CC2)[nH]c1C,-1,0.12
Cc1ccc([C@]2(C)NC(=O)N(Cc3nnsc3Cl)C2=O)o1,-4,0.76
Cc1cc(Cl)ccc1-n1cnc(=O)n1CC(=O)NC1CC1,-5,0.83
OC1(c2nc(-c3ccccn3)no2)CCCCC1,-1,0.08
NC(=O)c1cccnc1N1CC[C@@]2(CCCN(CC3CCCCC3)C2)C1,3,-0.5
C[C@H](NC(=O)N1CCC2(CCOCC2)C1)c1ccc(F)cc1Cl,-3,0.39
CC1(C)C(NCC2CCCCN2S(C)(=O)=O)[C@@H]2CCC[C@@H]21 (stereo not given in full),-5,0.77
CC1(CNC(=O)[C@@H](N)CCCNC(N)=O)CCCCC1,-9,0.97
COC(=O)[C@@H](C)NC(=O)c1coc(C)n1,5,-0.68
Nc1nc2c(c(C(=O)N3CCC(c4nc5ccccc5o4)CC3)n1)CCCC2,-13,1.73
Cc1ccc(C(C)(C)CN(C)C(=O)c2nc3n(n2)CCCN3)cc1,14,-1.75
CCn1ncnc1CN(C)Cc1n[nH]c2c1CCC2,-5,0.69
C=CCCN[C@@H](C)c1ccc(S(C)(=O)=O)c(F)c1,-3,0.57
Cc1ccc(C2(Nc3ncc(F)c(N(C)C)n3)CC2)cc1,13,-1.81
CC(C)c1nc(CN(C)c2nc3c(c(=O)[nH]2)CCNCC3)cs1,-9,1.68
CN1C[C@@H](c2ccccc2)CC2(CCN(C(=O)c3ccc(C#N)cc3)CC2)C1,4,-0.76
Cc1ccc(Nc2nc(NCc3ccccn3)nc3[nH]ncc23)cc1C,1,-0.1
N#Cc1cnc(OC2CCC2)c(Cl)c1,0,0.03
CCCc1nnc(NC(=O)[C@@H]2Cc3ccccc3C(=O)O2)s1,-8,1.31
Cc1nn(C)c(C)c1CC(=O)N(CC1CCCCC1)c1ccccn1,-9,0.99

Compound,% Inhibition [%],Z score
CCN(CC(=O)Nc1c(C)cccc1C)C(=O)[C@H]1CCCOC1,-6,0.77
Clc1ccc(NCc2nccs2)cc1-n1nnnc1C1CC1,7,-0.84
CCN(CC1CCOC1)C(=O)C1CCN(c2ccc(Cl)c(Cl)c2)C1=O (stereo not given),7,-1.02
COc1ccc(-c2cnc3nc(C)[nH]c3c2)c(-n2cccn2)c1,8,-1.74
C=CCOc1ccccc1CN[C@H]1C[C@@H](C(=O)NCC)N(Cc2ccccc2Cl)C1,-16,2.08
COC(=O)CC(C)(C)C(=O)NC[C@H]1CCCN1S(C)(=O)=O,8,-0.76
CCCc1cc(C(=O)NC[C@H](O)c2cccnc2)no1,-7,1.27
Cc1nnc(N2CCc3c(cccc3C(F)(F)F)C2)n1C,-8,0.8
O=C(Cc1ccccc1)N1CCN(S(=O)(=O)c2ccco2)CC1,-6,0.75
COCCN1C(=O)C2C(C)NC3(C(=O)Nc4c(C)cc(C)cc43)C2C1=O (stereo not given),-8,1.05
Cc1ccc(N(C)C(C)C)c(C(=O)NC[C@H]2OCCN(C)[C@@H]2c2cnn(C)c2)c1,2,-0.4
N#Cc1ccc(N2CC3CC=CCC3C2)nc1 (stereo not given),-14,2.32
O=C(c1cnc2c(F)cc(F)cc2c1O)N1CCOCC2(CC2)C1,-9,1
CCC(C)C(C(=O)Nc1n[nH]c(-c2cccs2)n1)n1cnnn1 (stereo not given),-4,0.53
Cc1ccsc1C(=O)N(C)C1CCN(Cc2ccncc2)CC1,-5,0.61
Cc1ccc(S(=O)(=O)N2C[C@@H](C)CC2(C)C)o1,7,-1.22
CC(C)[C@H](Cn1cncn1)NC(=O)c1cncc(F)c1,-11,2.15
CCOc1ccccc1CNC(C)(C)CO,-4,0.51
Cc1ccc2nc(NCc3ccccc3Cl)c(-n3nc(C)cc3C)nc2c1,-2,0.24
